According to the supplement of paper PMC12230231:
± gives the standard deviation of the averaged measurements. Restriction of a single-cycle SIVsab GFP reporter by TRIM5α v1-loop variants in CRFK cells. Human variants: read share among cells still uninfected after two challenges over input, higher = gained restriction. Rhesus variants: share among infected cells over input, higher = lost restriction. Reporter dose not given per row. No active / inactive call per row; the paper calls a change when both replicates lie above its controls (mean + 2 SD of stop or wild-type variants, or the top frameshift score). Residues outside the varied loop are taken from Swiss-Prot. The paper reads the human single-substitution scores as noise; they and the rhesus combinations repeat poorly (rank correlation 0.3 to 0.4), indel scores repeat only for the top variants, rhesus substitutions well (0.9).

Each sequence was assayed on SIVsab (simian immunodeficiency virus of sabaeus monkeys), single-cycle GFP reporter, in CRFK cells (assay: enrichment among uninfected cells over input (fold); higher = stronger restriction). Conditions: library: human / rhesus combinations.
Method: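 Pools of CRFK cells expressing variants of the TRIM5α v1 loop were challenged with the single-cycle reporter, sorted by GFP and sequenced; mean of two replicates.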

Row | Sequence | enrichment
1 | MASGILVNVKEEVTCPICLELLTQPLSLDCGHSFCQACLTANHKKSMLDKGESSCPVCRISYQPENIRPNRHVANIVEKLREVKLSPEGQKVDHCARHGEKLLLFCQEDGKVICWLCERSQEHRGHHTFLTEEVAREYQVKLQAALEMLRQKQQEAEELEADIREEKASWKTQIQYDKTNVLADFEQLRDILDWEESNELQNLEKEEEDILKSLTNSETEMVQQTQSLRELISDLEHRLQGSVMELLQGVDGVIKRTENVTLKKPETFPKNQRRVFRAPDLKGMLEVFRELTDVRRYWVDVTVAPNNISCAVISEDKRQVSSPKPQIIYGARGTRFTFPSLTNFNYCTGILGSQSITSGKHYWEVDVSKKTAWILGVCAGFQPDAMCNIEKNENYQPKYGYWVIGLEEGVKCSAFQDSSFHTPSVPFIVPLSVIICPDRVGVFLDYEACTVSFFNITNHGFLIYKFSHCSFSQPVFPYLNPRKCGVPMTLCSPSS [human TRIM5α, 330-340 = GARGTRFTFPSLT] | 0.0704 ± 0.012
2 | MASGILVNVKEEVTCPICLELLTQPLSLDCGHSFCQACLTANHKKSMLDKGESSCPVCRISYQPENIRPNRHVANIVEKLREVKLSPEGQKVDHCARHGEKLLLFCQEDGKVICWLCERSQEHRGHHTFLTEEVAREYQVKLQAALEMLRQKQQEAEELEADIREEKASWKTQIQYDKTNVLADFEQLRDILDWEESNELQNLEKEEEDILKSLTNSETEMVQQTQSLRELISDLEHRLQGSVMELLQGVDGVIKRTENVTLKKPETFPKNQRRVFRAPDLKGMLEVFRELTDVRRYWVDVTVAPNNISCAVISEDKRQVSSPKPQIIYQAPGTLFTFQSLTNFNYCTGILGSQSITSGKHYWEVDVSKKTAWILGVCAGFQPDAMCNIEKNENYQPKYGYWVIGLEEGVKCSAFQDSSFHTPSVPFIVPLSVIICPDRVGVFLDYEACTVSFFNITNHGFLIYKFSHCSFSQPVFPYLNPRKCGVPMTLCSPSS [human TRIM5α, 330-340 = QAPGTLFTFQSLT] | 0.905 ± 0.16
3 | MASGILVNVKEEVTCPICLELLTQPLSLDCGHSFCQACLTANHKKSMLDKGESSCPVCRISYQPENIRPNRHVANIVEKLREVKLSPEGQKVDHCARHGEKLLLFCQEDGKVICWLCERSQEHRGHHTFLTEEVAREYQVKLQAALEMLRQKQQEAEELEADIREEKASWKTQIQYDKTNVLADFEQLRDILDWEESNELQNLEKEEEDILKSLTNSETEMVQQTQSLRELISDLEHRLQGSVMELLQGVDGVIKRTENVTLKKPETFPKNQRRVFRAPDLKGMLEVFRELTDVRRYWVDVTVAPNNISCAVISEDKRQVSSPKPQIIYQARGTRFTFPTLTNFNYCTGILGSQSITSGKHYWEVDVSKKTAWILGVCAGFQPDAMCNIEKNENYQPKYGYWVIGLEEGVKCSAFQDSSFHTPSVPFIVPLSVIICPDRVGVFLDYEACTVSFFNITNHGFLIYKFSHCSFSQPVFPYLNPRKCGVPMTLCSPSS [human TRIM5α, 330-340 = QARGTRFTFPTLT] | 0.131 ± 0.11
4 | MASGILVNVKEEVTCPICLELLTQPLSLDCGHSFCQACLTANHKKSMLDKGESSCPVCRISYQPENIRPNRHVANIVEKLREVKLSPEGQKVDHCARHGEKLLLFCQEDGKVICWLCERSQEHRGHHTFLTEEVAREYQVKLQAALEMLRQKQQEAEELEADIREEKASWKTQIQYDKTNVLADFEQLRDILDWEESNELQNLEKEEEDILKSLTNSETEMVQQTQSLRELISDLEHRLQGSVMELLQGVDGVIKRTENVTLKKPETFPKNQRRVFRAPDLKGMLEVFRELTDVRRYWVDVTVAPNNISCAVISEDKRQVSSPKPQIIYQARGTRYTFPTFTNFNYCTGILGSQSITSGKHYWEVDVSKKTAWILGVCAGFQPDAMCNIEKNENYQPKYGYWVIGLEEGVKCSAFQDSSFHTPSVPFIVPLSVIICPDRVGVFLDYEACTVSFFNITNHGFLIYKFSHCSFSQPVFPYLNPRKCGVPMTLCSPSS [human TRIM5α, 330-340 = QARGTRYTFPTFT] | 0.0468 ± 0.065
5 | MASGILVNVKEEVTCPICLELLTQPLSLDCGHSFCQACLTANHKKSMLDKGESSCPVCRISYQPENIRPNRHVANIVEKLREVKLSPEGQKVDHCARHGEKLLLFCQEDGKVICWLCERSQEHRGHHTFLTEEVAREYQVKLQAALEMLRQKQQEAEELEADIREEKASWKTQIQYDKTNVLADFEQLRDILDWEESNELQNLEKEEEDILKSLTNSETEMVQQTQSLRELISDLEHRLQGSVMELLQGVDGVIKRTENVTLKKPETFPKNQRRVFRAPDLKGMLEVFRELTDVRRYWVDVTVAPNNISCAVISEDKRQVSSPKPQIIYGAPGTRYTFQTFTNFNYCTGILGSQSITSGKHYWEVDVSKKTAWILGVCAGFQPDAMCNIEKNENYQPKYGYWVIGLEEGVKCSAFQDSSFHTPSVPFIVPLSVIICPDRVGVFLDYEACTVSFFNITNHGFLIYKFSHCSFSQPVFPYLNPRKCGVPMTLCSPSS [human TRIM5α, 330-340 = GAPGTRYTFQTFT] | 0.09 ± 0.033

Same assay, conditions: library: insertions and deletions

Row | Sequence | enrichment
6 | MASGILVNVKEEVTCPICLELLTQPLSLDCGHSFCQACLTANHKKSMLDKGESSCPVCRISYQPENIRPNRHVANIVEKLREVKLSPEGQKVDHCARHGEKLLLFCQEDGKVICWLCERSQEHRGHHTFLTEEVAREYQVKLQAALEMLRQKQQEAEELEADIREEKASWKTQIQYDKTNVLADFEQLRDILDWEESNELQNLEKEEEDILKSLTNSETEMVQQTQSLRELISDLEHRLQGSVMELLQGVDGVIKRTENVTLKKPETFPKNQRRVFRAPDLKGMLEVFRELTDVRRYWVDVTVAPNNISCAVISEDKRQVSSPKPQIIYGAIYGARGTRYQTFVNFNYCTGILGSQSITSGKHYWEVDVSKKTAWILGVCAGFQPDAMCNIEKNENYQPKYGYWVIGLEEGVKCSAFQDSSFHTPSVPFIVPLSVIICPDRVGVFLDYEACTVSFFNITNHGFLIYKFSHCSFSQPVFPYLNPRKCGVPMTLCSPSS [human TRIM5α, 4-codon duplication at 328] | 0.573 ± 0.44
7 | MASGILVNVKEEVTCPICLELLTQPLSLDCGHSFCQACLTANHKKSMLDKGESSCPVCRISYQPENIRPNRHVANIVEKLREVKLSPEGQKVDHCARHGEKLLLFCQEDGKVICWLCERSQEHRGHHTFLTEEVAREYQVKLQAALEMLRQKQQEAEELEADIREEKASWKTQIQYDKTNVLADFEQLRDILDWEESNELQNLEKEEEDILKSLTNSETEMVQQTQSLRELISDLEHRLQGSVMELLQGVDGVIKRTENVTLKKPETFPKNQRRVFRAPDLKGMLEVFRELTDVRRYWVDVTVAPNNISCAVISEDKRQVSSPKPQIIYGARGTRYQTFVNLGSQSITSGKHYWEVDVSKKTAWILGVCAGFQPDAMCNIEKNENYQPKYGYWVIGLEEGVKCSAFQDSSFHTPSVPFIVPLSVIICPDRVGVFLDYEACTVSFFNITNHGFLIYKFSHCSFSQPVFPYLNPRKCGVPMTLCSPSS [human TRIM5α, 7-codon deletion at 342] | 2.13 ± 1.2
8 | MASGILVNVKEEVTCPICLELLTQPLSLDCGHSFCQACLTANHKKSMLDKGESSCPVCRISYQPENIRPNRHVANIVEKLREVKLSPEGQKVDHCARHGEKLLLFCQEDGKVICWLCERSQEHRGHHTFLTEEVAREYQVKLQAALEMLRQKQQEAEELEADIREEKASWKTQIQYDKTNVLADFEQLRDILDWEESNELQNLEKEEEDILKSLTNSETEMVQQTQSLRELISDLEHRLQGSVMELLQGVDGVIKRTENVTLKKPETFPKNQRRVFRAPDLKGMLEVFRELTDVRRYWVDVTVAPNNISCAVISEDKRQVSSPKPQIIYGARGTRYQTFVNFNYTGILGSQSITSGKHYWEVDVSKKTAWILGVCAGFQPDAMCNIEKNENYQPKYGYWVIGLEEGVKCSAFQDSSFHTPSVPFIVPLSVIICPDRVGVFLDYEACTVSFFNITNHGFLIYKFSHCSFSQPVFPYLNPRKCGVPMTLCSPSS [human TRIM5α, 1-codon deletion at 345] | 0.661 ± 0.073
9 | MASGILVNVKEEVTCPICLELLTQPLSLDCGHSFCQACLTANHKKSMLDKGESSCPVCRISYQPENIRPNRHVANIVEKLREVKLSPEGQKVDHCARHGEKLLLFCQEDGKVICWLCERSQEHRGHHTFLTEEVAREYQVKLQAALEMLRQKQQEAEELEADIREEKASWKTQIQYDKTNVLADFEQLRDILDWEESNELQNLEKEEEDILKSLTNSETEMVQQTQSLRELISDLEHRLQGSVMELLQGVDGVIKRTENVTLKKPETFPKNQRRVFRAPDLKGMLEVFRELTDVRRYWVDVTVAPNNISCAVISEDKRQVSSPKPQIIIIYGARGTRYQTFVNFNYCTGILGSQSITSGKHYWEVDVSKKTAWILGVCAGFQPDAMCNIEKNENYQPKYGYWVIGLEEGVKCSAFQDSSFHTPSVPFIVPLSVIICPDRVGVFLDYEACTVSFFNITNHGFLIYKFSHCSFSQPVFPYLNPRKCGVPMTLCSPSS [human TRIM5α, 2-codon duplication at 327] | 0.867 ± 0.15
10 | MASGILVNVKEEVTCPICLELLTQPLSLDCGHSFCQACLTANHKKSMLDKGESSCPVCRISYQPENIRPNRHVANIVEKLREVKLSPEGQKVDHCARHGEKLLLFCQEDGKVICWLCERSQEHRGHHTFLTEEVAREYQVKLQAALEMLRQKQQEAEELEADIREEKASWKTQIQYDKTNVLADFEQLRDILDWEESNELQNLEKEEEDILKSLTNSETEMVQQTQSLRELISDLEHRLQGSVMELLQGVDGVIKRTENVTLKKPETFPKNQRRVFRAPDLKGMLEVFRELTDVRRYWVDVTVAPNNISCAVISEDKRQVSSPKPQIIRYQTFVNFNYCTGILGSQSITSGKHYWEVDVSKKTAWILGVCAGFQPDAMCNIEKNENYQPKYGYWVIGLEEGVKCSAFQDSSFHTPSVPFIVPLSVIICPDRVGVFLDYEACTVSFFNITNHGFLIYKFSHCSFSQPVFPYLNPRKCGVPMTLCSPSS [human TRIM5α, 6-codon deletion at 329] | 0.688 ± 0.29
11 | MASGILVNVKEEVTCPICLELLTQPLSLDCGHSFCQACLTANHKKSMLDKGESSCPVCRISYQPENIRPNRHVANIVEKLREVKLSPEGQKVDHCARHGEKLLLFCQEDGKVICWLCERSQEHRGHHTFLTEEVAREYQVKLQAALEMLRQKQQEAEELEADIREEKASWKTQIQYDKTNVLADFEQLRDILDWEESNELQNLEKEEEDILKSLTNSETEMVQQTQSLRELISDLEHRLQGSVMELLQGVDGVIKRTENVTLKKPETFPKNQRRVFRAPDLKGMLEVFRELTDVRRYWVDVTVAPNNISCAVISEDKRQVSSPKPQIIYGARGTRYQTFVNFNSQSITSGKHYWEVDVSKKTAWILGVCAGFQPDAMCNIEKNENYQPKYGYWVIGLEEGVKCSAFQDSSFHTPSVPFIVPLSVIICPDRVGVFLDYEACTVSFFNITNHGFLIYKFSHCSFSQPVFPYLNPRKCGVPMTLCSPSS [human TRIM5α, 7-codon deletion at 344] | 1.9 ± 0.94
12 | MASGILVNVKEEVTCPICLELLTQPLSLDCGHSFCQACLTANHKKSMLDKGESSCPVCRISYQPENIRPNRHVANIVEKLREVKLSPEGQKVDHCARHGEKLLLFCQEDGKVICWLCERSQEHRGHHTFLTEEVAREYQVKLQAALEMLRQKQQEAEELEADIREEKASWKTQIQYDKTNVLADFEQLRDILDWEESNELQNLEKEEEDILKSLTNSETEMVQQTQSLRELISDLEHRLQGSVMELLQGVDGVIKRTENVTLKKPETFPKNQRRVFRAPDLKGMLEVFRELTDVRRYWVDVTVAPNNISCAVISEDKRQVSSPKPQIIYGARGTRYQTFVNFQTFVNFNYCTGILGSQSITSGKHYWEVDVSKKTAWILGVCAGFQPDAMCNIEKNENYQPKYGYWVIGLEEGVKCSAFQDSSFHTPSVPFIVPLSVIICPDRVGVFLDYEACTVSFFNITNHGFLIYKFSHCSFSQPVFPYLNPRKCGVPMTLCSPSS [human TRIM5α, 6-codon duplication at 337] | 1.03 ± 0.8
